In all, about 150,000 compounds went through this assay and about 540 (0.36%) showed an effect of 50% or more. Some of the results follow.

What is called % Inhibition is the drop in the measured response relative to a control, in per cent.

For this experiment, the system named is Plasmodium falciparum. The experiment is described as follows: Primary screen in NF54 nanoGlo assay, in single point, at 2uM, 72h; a lower Z score goes with more inhibition. The format is functional, Erythrocyte. The conditions noted are these: timepoint 72 hour.
Regarding `CCCn1cc(C(=O)NCCc2cncn2C)cn1`, the “% Inhibition” value is on record as -11% and the Z score was determined as 1.24.
For `OC[C@H]1CCCCN1C1CCCCCC1`, the “% Inhibition” value was 2% and the Z score is -0.38.
For `Cc1nc(NC2CC(=O)N3CCCCC23)nc(N(C)C)n1` (stereo not given) the same measures were -43% and 5.01.
For `CCc1ccc(S(=O)(=O)N2CCC[C@H]2c2cc(CC)no2)cc1`, in that order: -13% and 1.81.
For `Cc1cnc(CN(C)CCC2(O)CCCC2)cn1`, the “% Inhibition” value was 3% and the Z score was -0.58.
Turning to `Cc1sc(C(=O)N2CCO[C@H](C(N)=O)C2)cc1-c1ccc(F)cc1`, the “% Inhibition” value is -13% and the Z score turned out to be 1.26.
In the case of `Cc1nnc(CN2CC3(C)CN(Cc4ccccc4)CC3(C)C2)n1C` (stereo not given), the “% Inhibition” value is given as -6% and the Z score is given as 0.78.
For `CCc1ccccc1NC(=O)CN1CCCN(c2nc(C)ns2)CC1`, in that order: -9% and 1.07.
For `c1cc2ccc(-c3nc(C4CCOCC4)n[nH]3)cc2[nH]1`, in that order: -6% and 0.96.
For `Cc1cc(C(=O)N2CCC(C)(c3noc(-c4ccccn4)n3)CC2)c(C)n1Cc1ccc(F)cc1`, the “% Inhibition” value was -15% and the Z score is reported as 1.96.
As for `O=C(NC[C@H]1CCCN(c2ccncc2)C1)c1ccccc1F`, the “% Inhibition” value is reported as 9% and the Z score was -1.14.
In the case of `CCOc1ncccc1NC(=O)C1=NN(c2ccccc2)C(=O)CN1`, the “% Inhibition” value was -10% and the Z score is given as 2.04.
`COc1ccc([C@H](C)N(C)CCn2cnnc2C)c(OC)c1`: the “% Inhibition” value is recorded as -15% and the Z score is listed as 2.19.
For `Cn1cc(CNC[C@H]2Cn3c(-c4ccc(F)cc4)cnc3CO2)cn1` the same measures were 30% and -3.38.
For `CN(C)c1ccc(Nc2ncnc3c(F)cccc23)cn1` the same measures were -8% and 0.97.
Take `O=C(c1ncccc1O)N1CCC[C@H]1c1nc(-c2ccccc2)no1`: the “% Inhibition” value worked out at 0% and the Z score is 0.03.
For `Cc1c(C#N)cccc1NC(=O)N1CCC[C@H](OCC2CC2)C1`, the “% Inhibition” value is -7% and the Z score came out at 0.75.
With `Cc1cc(C)cc([C@@H](NC(=O)NCC2(CO)CC2)c2cccnc2)c1`, the “% Inhibition” value was -2% and the Z score came out at 0.21.
Take `CC1(C)CC[C@H](NC(=O)NC2CC2)c2ccccc21`: the “% Inhibition” value is on record as -6% and the Z score is recorded as 0.65.
Consider `Clc1ccc(OCCn2cc(-c3cnn(Cc4ccccc4)c3)cn2)cc1`, for which the “% Inhibition” value is given as -10% and the Z score worked out at 1.99.
For `Cc1nc(N2CCC(Cn3nc(C4CC4)ccc3=O)CC2)c2cnn(C)c2n1` the same measures were -18% and 2.58.
For `COc1ccc(C(=O)NC2CC3CCC(C2)S3(=O)=O)cn1` (stereo not given) the same measures were -16% and 1.71.
Take `Cc1nccn1-c1ccc(NC(=O)C2CCN(S(=O)(=O)c3ccc4c(c3)CCC4)CC2)cn1`: the “% Inhibition” value worked out at 18% and the Z score is listed as -3.63.
Regarding `CCC(=O)N1CCC(NCc2csc3ccccc23)C(CC)C1` (stereo not given), the “% Inhibition” value is -13% and the Z score amounted to 1.94.
Take `CCOc1ccc(CN2CCC[C@H](CS(C)(=O)=O)C2)cn1`: the “% Inhibition” value is given as -7% and the Z score is recorded as 1.41.
As for `O=C(Cn1c2c(c(=O)n3ncnc13)CCC2)Nc1ccccc1`, the “% Inhibition” value is given as -3% and the Z score was 0.42.
For `CCC(c1ccc(F)cc1)c1nnc(C2COc3ccccc3C2)o1` (stereo not given) the same measures were -6% and 1.02.
For `OC[C@H](Cc1c[nH]cn1)NCc1cc2ccc(Cl)cc2nc1OCCOc1ccccc1`, in that order: 8% and -1.41.
For `Cc1ccc2nnc(CNS(=O)(=O)CCC3CCOCC3)n2c1`, in that order: -10% and 0.84.
With `C[C@@H](C(=O)NCc1ccc2c(c1)OCO2)N(C)CCOc1ccc(Br)cc1`, the “% Inhibition” value turned out to be 1% and the Z score is given as -0.15.
Take `c1ccc(CCC[C@H]2CN(Cc3cccnc3)CCO2)cc1`: the “% Inhibition” value is on record as -3% and the Z score was 0.56.
For `Cc1nn(-c2ccc(F)cc2)c2[nH]nc(NC(=O)c3ccon3)c12`, in that order: -7% and 0.74.
For `Cc1nc(OCC(=O)NCc2cccc(Cl)c2)c2c(-c3ccc(C)c(C)c3)noc2n1` the same measures were 3% and -0.45.
For `CNC(=O)c1cccc(-n2cc(O)c(-c3nc(-c4ccccc4)cs3)c2N)c1` the same measures were -9% and 1.21.
Turning to `CNC(=O)c1cc(C(=O)CN2CC(C)OC(C)C2)cn1C` (stereo not given), the “% Inhibition” value is recorded as -6% and the Z score amounted to 0.64.
For `O=C(c1cc(C2CC2)[nH]c(=O)c1)N1CCC[C@@]2(C1)OCc1ccccc12` the same measures were -3% and 0.4.
For `CC(c1cccc(O)c1)N(C)S(=O)(=O)N(C)C(C)C1CC1` (stereo not given), in that order: -17% and 2.7.
For the compound `O=C1CO[C@H]2CN(Cc3c[nH]c4ccccc34)C[C@H]2N1Cc1cccnc1`, the “% Inhibition” value is -10% and the Z score worked out at 1.6.
With `CCC[C@H](C)c1cc(NS(=O)(=O)c2cnn(CC)c2)[nH]n1`, the “% Inhibition” value was found to be 38% and the Z score is -0.96.
For `Cc1c(Cl)cccc1C(=O)N[C@@H](CC1CC1)C(=O)O`, in that order: -5% and 0.59.
As to `CN(C)C(=O)CCc1ccc(CC2CCN(Cc3ccccn3)CC2)cc1`, the “% Inhibition” value is reported as -12% and the Z score amounted to 1.54.
For `CCC(C)(C)C(=O)Nc1nnc(C(C)C)s1` the same measures were -9% and 1.68.
For `c1cc(CNC2CCN(c3ccc(-c4cscn4)cc3)CC2)cs1`, in that order: -6% and 1.07.
For `CN(C(=O)Cn1cc(Br)cn1)[C@H]1CCO[C@@H]1c1cccnc1` the same measures were -10% and 0.83.
As for `CC(C)(C)C(=O)NC[C@@](O)(c1ccco1)C1CC1`, the “% Inhibition” value is -10% and the Z score turned out to be 1.66.
For `Cc1c(-c2ccc(Cl)cc2)nnn1CCC(N)=O`, in that order: -10% and 1.37.
For `O=C(NCc1ccc(Cl)cc1)c1cncn1-c1cccc(-c2cccc(OC(F)(F)F)c2)c1`, in that order: -1% and 0.2.
Turning to `Cc1cc(C)c(S(=O)(=O)NC2CCOC(c3nccn3C)C2)s1` (stereo not given), the “% Inhibition” value is 3% and the Z score is reported as -0.54.
Consider `O=C(N[C@@H](Cc1ccccc1)C(=O)Nc1cccnc1)OCc1ccccc1`, for which the “% Inhibition” value stood at 5% and the Z score is -0.58.
For `Nc1nc2c(c(N3Cc4ccccc4C3)n1)CCNC2`, in that order: -1% and 0.13.
For `CC(C)(C)c1nn(Cc2noc(C3CC3)n2)c(O)c1CCC#N` the same measures were -7% and 1.16.
With `OC[C@]1(c2ccccc2)CCN(Cc2nnc(-c3ccccc3)o2)C1`, the “% Inhibition” value was determined as 4% and the Z score is listed as -0.36.
For `CC1CCN(C(=O)C(=O)N2CC(C)(C)[C@@H]2C2CC2)CC1` the same measures were -9% and 1.68.
For `FC(F)(F)C1CCN(c2cnccn2)CC1`, in that order: 1% and -0.24.
In the case of `CC(C)[C@H](C)NC1CCN(S(=O)(=O)NCC(F)(F)F)CC1`, the “% Inhibition” value is on record as -4% and the Z score was determined as 0.83.
